# The IC50 comes from the fitted curve, where viability falls to half of the control; a fit beyond the top or the lowest dose is shown as a bound at that dose. The AUC spans the tested range (256-fold, ending at the top dose) of the same fit; it is 1 without any effect and falls as sensitivity rises. For some of these results: An inferred top dose was derived from the fitted curves, not read from the paper.
# Tests used:
# Experiment in all cases: Viability of human cancer cell lines after 72 h of drug (GDSC screen)
# Tubastatin A = compound: CN1CCc2c(c3ccccc3n2Cc2ccc(C(=O)NO)cc2)C1 [Tubastatin A]; settings: top dose 20 µM
# Protocol: (§1)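 Human cancer cell lines in 384-well plates, medium with 10% serum, drug for 72 h over a 256-fold dose range (nine 2-fold or five 4-fold steps up to the top dose). Adherent lines were fixed and stained with the nucleic acid dye Syto60, suspension lines read with resazurin; signal relative to control wells, capped at 0 and 100%. One two-parameter sigmoid per drug and line, fitted in a mixed model over all curves with the slope shared within a line.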
# CI-1040 = compound: O=C(NOCC1CC1)c1ccc(F)c(F)c1Nc1ccc(I)cc1Cl [CI-1040]; settings: top dose 10 µM; top dose inferred
# Protocol: as §1
# IPA-3 = compound: Oc1ccc2ccccc2c1SSc1c(O)ccc2ccccc12 [IPA-3]; settings: top dose 32 µM; top dose inferred
# Protocol: as §1
# XL-880 = compound: COc1cc2c(Oc3ccc(NC(=O)C4(C(=O)Nc5ccc(F)cc5)CC4)cc3F)ccnc2cc1OCCCN1CCOCC1 [XL-880]; settings: top dose 5.12 µM; top dose inferred
# Protocol: as §1
# Temozolomide = compound: Cn1nnc2c(C(N)=O)ncn2c1=O [Temozolomide]; settings: top dose 30 µM
# Protocol: as §1
Cell Line,AUC (Tubastatin A),IC50 (Tubastatin A) [µM],AUC (CI-1040),IC50 (CI-1040) [µM],AUC (IPA-3),IC50 (IPA-3) [µM],AUC (XL-880),IC50 (XL-880) [nM],AUC (Temozolomide),IC50 (Temozolomide) [µM]
"SK-OV-3 (ovary, adherent)",0.945,> 20,0.913,> 10,0.836,29.3,0.633,821,0.969,> 30
"KP-2 (pancreas, adherent)",0.971,> 20,0.734,3.09,0.827,21.7,0.667,976,0.961,> 30
"HCC1143 (breast, adherent)",0.965,> 20,0.79,6.59,0.844,> 32,0.635,881,0.977,> 30
"IGR-37 (melanoma, adherent)",0.895,> 20,0.272,0.151,0.792,13.1,0.658,843,0.988,> 30
"G-292 Clone A141B1 (osteosarcoma, adherent)",0.899,> 20,0.909,> 10,0.838,> 32,0.656,1130,0.972,> 30
"G-402 (soft tissue, adherent)",0.959,> 20,0.942,> 10,0.899,> 32,0.521,371,0.974,> 30
"OVCAR-5 (ovary, adherent)",0.93,> 20,0.594,1.19,0.816,22.5,0.665,1020,0.977,> 30
"SAT (head and neck, adherent)",0.942,> 20,0.75,5,0.973,> 32,0.663,1170,0.954,> 30
"COLO-678 (large intestine, semi-adherent)",0.983,> 20,0.742,3.86,0.985,> 32,0.809,3690,0.981,> 30
"HCC70 (breast, adherent)",0.941,> 20,0.847,7.18,0.988,> 32,0.81,2630,0.974,> 30
"BFTC-905 (bladder, adherent)",0.984,> 20,0.769,3.27,0.642,4.65,0.68,939,0.947,> 30
"NCI-H1435 (lung adenocarcinoma, semi-adherent)",0.992,> 20,0.974,> 10,0.993,> 32,0.814,2420,0.99,> 30
"HMV-II (melanoma, adherent)",0.961,> 20,0.626,1.51,0.837,28.6,0.82,3810,0.98,> 30
"NCI-H1703 (lung adenocarcinoma, adherent)",0.977,> 20,0.913,> 10,0.975,> 32,0.696,1300,0.954,> 30
"T98G (glioma, adherent)",0.985,> 20,0.87,8.16,0.99,> 32,0.619,660,0.984,> 30
"JHH-6 (liver, adherent)",0.979,> 20,0.877,> 10,0.976,> 32,0.736,1530,0.985,> 30
"CAL-85-1 (breast, adherent)",0.958,> 20,0.884,> 10,0.686,7.76,0.84,5060,0.962,> 30
"YAPC (pancreas, adherent)",0.985,> 20,0.961,> 10,0.985,> 32,0.75,2040,0.982,> 30
"HN (head and neck, adherent)",0.988,> 20,0.699,2.18,0.988,> 32,0.879,4700,0.987,> 30
"FU97 (stomach, adherent)",0.961,> 20,0.895,> 10,0.882,> 32,0.637,776,0.982,> 30
"SAS (head and neck, adherent)",0.981,> 20,0.863,> 10,0.832,23.7,0.624,730,0.982,> 30
"SiHa (cervix, adherent)",0.985,> 20,0.942,> 10,0.987,> 32,0.976,> 5120,0.983,> 30
"NCI-H2023 (lung adenocarcinoma, adherent)",0.981,> 20,0.922,> 10,0.967,> 32,0.781,2680,0.98,> 30
"PA-TU-8902 (pancreas, adherent)",0.979,> 20,0.709,2.72,0.983,> 32,0.625,750,0.981,> 30
"SW756 (cervix, adherent)",0.984,> 20,0.877,> 10,0.973,> 32,0.959,> 5120,0.942,> 30
"RMG-I (ovary, adherent)",0.962,> 20,0.954,> 10,0.872,> 32,0.682,1130,0.981,> 30
"KYSE-510 (oesophagus, adherent)",0.989,> 20,0.852,5.78,0.791,11.7,0.769,1620,0.893,25.2

Cell Line,AUC (Tubastatin A),IC50 (Tubastatin A) [µM],AUC (CI-1040),IC50 (CI-1040) [µM],AUC (IPA-3),IC50 (IPA-3) [µM],AUC (XL-880),IC50 (XL-880) [nM],AUC (Temozolomide),IC50 (Temozolomide) [µM]
"NCI-H647 (non-small cell lung carcinoma, adherent)",0.941,> 20,0.895,> 10,0.984,> 32,0.549,439,0.567,2.88
"CAL-72 (osteosarcoma, adherent)",0.983,> 20,0.76,4.11,0.818,22.4,0.902,> 5120,0.971,> 30
"KYSE-70 (oesophagus, adherent)",0.984,> 20,0.889,> 10,0.867,> 32,0.845,4200,0.971,> 30
"NCI-H358 (lung adenocarcinoma, adherent)",0.857,19.3,0.72,2.84,0.821,21.2,0.654,899,0.98,> 30
"KON (head and neck, adherent)",0.987,> 20,0.85,7.37,0.788,13.7,0.818,2820,0.963,> 30
"UMC-11 (lung carcinoid, adherent)",0.876,16.3,0.908,> 10,0.991,> 32,0.631,706,0.975,> 30
"DK-MG (glioma, adherent)",0.978,> 20,0.795,7.55,0.856,> 32,0.397,146,0.971,> 30
"NCI-H520 (lung squamous cell carcinoma, adherent)",0.905,> 20,0.987,> 10,0.898,> 32,0.601,612,0.986,> 30
"JHH-7 (liver, adherent)",0.989,> 20,0.895,> 10,0.823,17.3,0.659,856,0.981,> 30
"NCI-H2444 (non-small cell lung carcinoma, adherent)",0.971,> 20,0.883,> 10,0.904,> 32,0.84,4250,0.987,> 30
"LU-135 (small cell lung carcinoma, suspension)",0.92,> 20,0.975,> 10,0.861,19.9,0.431,215,0.986,> 30
"T-T (oesophagus, adherent)",0.981,> 20,0.847,7.28,0.956,> 32,0.634,747,0.986,> 30
"A431 (skin, adherent)",0.927,> 20,0.828,5.84,0.784,13,0.496,313,0.984,> 30
"Ca9-22 (head and neck, adherent)",0.971,> 20,0.751,3.08,0.815,16,0.698,1100,0.987,> 30
"NCI-H727 (lung carcinoid, adherent)",0.954,> 20,0.59,1.3,0.732,14.6,0.772,3480,0.969,> 30
"NCI-H2342 (lung adenocarcinoma, adherent)",0.983,> 20,0.921,> 10,0.738,10.4,0.826,3550,0.981,> 30
"CAL-51 (breast, adherent)",0.991,> 20,0.927,> 10,0.595,3.5,0.874,3870,0.988,> 30
"SK-HEP-1 (liver, adherent)",0.976,> 20,0.774,3.67,0.87,26.6,0.793,2170,0.987,> 30
"BxPC-3 (pancreas, adherent)",0.941,> 20,0.862,> 10,0.893,> 32,0.622,726,0.981,> 30
"Caov-4 (ovary, adherent)",–,–,0.829,> 10,0.974,> 32,0.678,1270,0.978,> 30
"MDA-MB-231 (breast, adherent)",0.978,> 20,0.773,4.13,0.949,> 32,–,–,0.943,> 30
"MKN45 (stomach, adherent)",0.98,> 20,0.846,> 10,0.822,25.4,–,–,0.979,> 30
"KP-1N (pancreas, adherent)",–,–,0.892,> 10,0.753,11.2,–,–,0.977,> 30
"MCF7 (breast, adherent)",0.986,> 20,0.945,> 10,0.579,3.33,–,–,0.971,> 30
"NCI-H1734 (lung adenocarcinoma, adherent)",0.974,> 20,0.872,> 10,0.81,18.9,0.771,2160,–,–
"JHU-011 (head and neck, adherent)",0.971,> 20,0.555,0.879,0.824,18.7,0.562,471,–,–

# Reference: the supplement of paper PMC4967469
